# Hit rate of the full screen: of about 370,000 compounds, about 150 (0.041%) were called active. This list was built around the results that the source calls inconclusive (neither active nor inactive); the mix of calls is not that of the screen. Calls follow the shape of the dose curve; as a rule, active = well fitted inhibition curve with a large enough effect; inconclusive = small, poorly fitted or top-dose-only effect; inactive = flat fitted curve, though single readings scatter. No potency is given beside an inconclusive call; the fits are too rough.
# Biological target: Beta-lactamase (Escherichia coli (strain K12)) (UniProt P00811)
# UniProt P00811, sequence (P00811 whole entry, looked up): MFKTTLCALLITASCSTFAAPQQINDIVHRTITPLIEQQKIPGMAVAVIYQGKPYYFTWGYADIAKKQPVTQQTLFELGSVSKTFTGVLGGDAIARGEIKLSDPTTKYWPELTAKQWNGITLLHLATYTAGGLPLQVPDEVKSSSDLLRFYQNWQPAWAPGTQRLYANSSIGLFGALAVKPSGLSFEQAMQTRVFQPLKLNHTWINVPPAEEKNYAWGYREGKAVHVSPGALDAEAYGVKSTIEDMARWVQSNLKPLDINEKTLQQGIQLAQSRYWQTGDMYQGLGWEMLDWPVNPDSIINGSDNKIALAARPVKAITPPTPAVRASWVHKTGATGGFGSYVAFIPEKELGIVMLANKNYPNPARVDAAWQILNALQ
# Assay: qHTS Inhibitors of AmpC Beta-Lactamase (assay with detergent); also: nearly all actives have a fitted effect of over 25% in size
# Settings: AmpC hydrolysis of nitrocefin, absorbance 480 nm, 0.01% Triton; series mostly up to 114 µM
# Method in brief: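 20 mM phosphate pH 7.0 + 0.01% (detergent screen) or 0.0001% Triton X-100; 5.3 nM AmpC reagent; cpd preinc 15 min RT; nitrocefin (800 uM stock) to start; A480 q20 s × 4 min; Activity was normalised to no-enzyme and no-compound control wells.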
# Potency is read from the fitted curve at half-maximal effect; tags tell the direction and shape of the fitted curve.
row,SMILES,Potency
1,CC(C)Cn1c(N)c(C(=O)COC(=O)c2ccccc2F)c(=O)n(C)c1=O,"inconclusive [inhibitor, full curve, poor fit]"
2,Cc1cc(NC(=O)CN2C(=O)NC(CCc3ccccc3)C2=O)no1 (centres undefined),"inconclusive [inhibitor, partial curve, poor fit]"
3,COc1ccc(NC(=O)c2ccc3ccccc3c2)cc1NS(=O)(=O)c1ccc(F)cc1,"inconclusive [inhibitor, single point]"
4,CCC12CC3CC(C1)CC(C(=O)O)(C3)C2,"inconclusive [inhibitor, full curve]"
5,O=C(Cn1cnc2ccccc21)NC(c1ccccc1)c1ccccc1,"inconclusive [inhibitor, full curve, poor fit]"
6,COc1ccc(OCc2nc3ccccc3n2C(C)c2ccccc2)cc1 (centres undefined),inactive
7,O=C(Nc1ccc(N2CCOCC2)nc1)c1ccccc1Cl,inactive
8,Cc1cc(/C=C2\NC(=S)NC2=O)c(C)n1-c1cccnc1,inactive
9,Cc1nn(CCOc2ccccc2)c(=O)n1-c1c(F)cccc1F,inactive
10,CCN(CC(=O)NCc1cccs1)C(=O)c1ccccc1Cl,"inconclusive [inhibitor, partial curve]"
11,Cn1cc(Cl)c(C(=O)N/N=C/c2ccc(OS(=O)(=O)c3ccccc3)cc2)n1,"inconclusive [inhibitor, partial curve, poor fit]"
12,CC(=O)Nc1ccc(NC(=O)CSC2=NS(=O)(=O)c3cc(F)ccc3N2)cc1,"inconclusive [inhibitor, full curve, poor fit]"
13,O=C(Nc1ccc2c(c1)CCC2)c1cc2ccccc2o1,"inconclusive [inhibitor, single point]"
14,COc1ccc2cc(C(=O)N/N=C/c3sc4ccccc4c3O)ccc2c1,"inconclusive [inhibitor, full curve]"
15,Cc1ccc(NC(=O)CN2C(=O)C(c3ccc(F)cc3)=NC23CCCCC3)c(C)c1,inactive
16,Cc1cccc(C)c1OCC(O)CN1CCC(CN2C(=O)c3cccc4cccc(c34)C2=O)CC1 (centres undefined),inactive
17,COc1ccc(NC(=S)Nc2ccc(OCc3ccccc3)cc2)c(OC)c1,"inconclusive [inhibitor, partial curve, poor fit]"
18,CC(OC(=O)C1CCN(S(=O)(=O)c2ccc(C(C)(C)C)cc2)CC1)C(=O)N1CCOCC1 (centres undefined),"inconclusive [inhibitor, partial curve, poor fit]"
19,CCOC(=O)c1csc(NC(=O)c2cc(=O)c3ccccc3o2)n1,inactive

# From PubChem BioAssay AID485294 (National Center for Advancing Translational Sciences (NCATS), 2010)
